Experimental findings from PubChem BioAssay AID1745853 (National Center for Advancing Translational Sciences (NCATS), 2022) are described below.

Structures are written as SMILES. This is one part of the list. Further columns of the screen follow, without active or inactive calls.

What all share (experiment): Primary Screen for Target Class Profiling of Small Molecule Inhibitors of Methyltransferases
Test [1] addresses Glycine N-methyltransferase (Homo sapiens) (UniProt Q14749). To be noted: purified enzyme, MTase-Glo SAH luminescence; measured here: GNMT inhibition; at 40 µM; stronger effect = lower value. In a few lines:
(§1)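 Each enzyme was reacted with SAM and its substrate, with compounds tested once at 40 uM; SAH formed was read by MTase-Glo luminescence.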

Test [2] addresses Guanidinoacetate N-methyltransferase (Homo sapiens) (UniProt Q14353). To be noted: purified enzyme, MTase-Glo SAH luminescence; measured here: GAMT inhibition; at 40 µM; stronger effect = lower value. In a few lines: as §1
Test [3] concerns the target Histamine N-methyltransferase (Homo sapiens) (UniProt P50135). To be noted: purified enzyme, MTase-Glo SAH luminescence; measured here: HNMT inhibition; at 40 µM; stronger effect = lower value. In a few lines:
as §1

The target in test [4] is Nicotinamide N-methyltransferase (Homo sapiens) (UniProt P40261). To be noted: purified enzyme, MTase-Glo SAH luminescence; measured here: NNMT inhibition; at 40 µM; stronger effect = lower value. The procedure, abridged: as §1
Test [5] concerns the target Phenylethanolamine N-methyltransferase (Homo sapiens) (UniProt P11086). Particulars: purified enzyme, MTase-Glo SAH luminescence; measured here: PNMT inhibition; at 40 µM; stronger effect = lower value. The procedure, abridged: as §1
On the % scale 0 is the no-effect control and ±100 the full control effect.

For `Cc1occc1-c1nc2ncccc2[nH]1`, the activity change, negative = inhibition in test [1] was -10.9%; in test [2], -9.47%; in test [3] it was -5.61%; in test [4], -8.9%; in test [5] it was -9.22%.
Take `CC1(C(=O)NCc2ccccc2)Cn2c(nc3ccccc32)C(=O)N1CCc1ccco1` (stereo not given): the activity change, negative = inhibition was -5.7% in test [1]; 4.63% in test [2]; -1.51% in test [3]; -2.54% in test [4]; -1.21% in test [5].
Taken in the same sequence, the figures for `Cn1nc(NC(=O)C2CCS(=O)(=O)C2)c2c(Oc3cccnc3)cccc21` (stereo not given) were 0.376%, -0.508%, 1.55%, 1.5% and 0.284%.
For `Cn1c(=O)c2ccc(C(=O)NC3CCCC3)cc2n2c(=O)n(Cc3ccccc3)nc12`, in that order: -6.27%, -6.13%, 2.03%, -7.24% and -4.06%.
For `C=C(C(=O)OC)[C@]12O[C@@](C)(CC[C@@]3(O)/C(=C\C)C(=O)O[C@]3(C)C[C@@H]1OC(=O)C(CO)CN1CCCC1C(=O)O)CC2=O` (stereo not given in full), in that order: -2%, -18.4%, 2.99%, -29% and -2.5%.
For `CCN(CC)CCCNC(=O)CCc1nnc2n(Cc3ccc(Cl)cc3)c(=O)c3ccccc3n12`, the activity change, negative = inhibition in test [1] is -5.79%; in test [2], 0%; in test [3], -59.1%; in test [4], 5.31%; in test [5], 2.2%.
Taken in the same sequence, the figures for `COc1ccc(C(=O)Cn2nc3n(Cc4ccccc4)c(=O)c4ccccc4n3c2=O)cc1` were 0.855%, 0.985%, 5.86%, -1.27% and -1.43%.
Taken in the same sequence, the figures for `CCSCCNC(=O)c1c(C)noc1-c1ccc(C(C)(C)C)cc1` were -4.4%, 3.26%, 1.17%, -9.82% and 12.7%.
For `COc1cccc(C2c3cccn3-c3sc4c(c3CN2C(=O)NCc2ccccc2)CCCC4)c1` (stereo not given), in that order: 1.92%, 0.118%, 2.16%, -1.69% and 4.14%.
For `O=C(Cn1ccc2cc(S(=O)(=O)N3CCCC3)ccc21)NCc1ccccc1`, the activity change, negative = inhibition was 0.897% in test [1]; 1.66% in test [2]; 0.123% in test [3]; -5.09% in test [4]; -2.82% in test [5].
As to `CCOC(=O)C(CCc1ccccc1)NC(C)C(=O)N1C(=O)N(C)CC1C(=O)O` (stereo not given), the activity change, negative = inhibition in test [1] worked out at 1.2%; in test [3], 9.15%.
`CC1CCCCC1NC(=O)C1(C)Cn2c(cc3sccc32)C(=O)N1Cc1cccc(Cl)c1` (stereo not given): the activity change, negative = inhibition is 0.58% in test [1]; 4.3% in test [2]; -0.198% in test [3]; 0.848% in test [4]; 0.59% in test [5].
Taken in the same sequence, the figures for `O=C(CSc1nnc2n(Cc3ccc(F)cc3)c(=O)c3ccccc3n12)Nc1cc(F)ccc1F` were 0.124%, 1.06%, 6.78%, 3.89% and 0.947%.
For `Cn1ncc2cc(-c3cnc(N)c(Cl)c3N3CCC4(CCNC4=O)CC3)ccc21`, the activity change, negative = inhibition in test [1] was -9.35%; in test [2], 2.42%; in test [3], -19.2%; in test [4] it was -23.6%; in test [5], 1.29%.
Taken in the same sequence, the figures for `COc1ccc2cc3n(c2c1)CC(C)(C(=O)NC1CCCC1)N(CCCc1ccccc1)C3=O` (stereo not given) were -6.47%, 1.06%, -8.27%, -13.6% and -8.12%.
Taken in the same sequence, the figures for `CCOC(=O)c1cc2n(n1)CC(C)(C(=O)NCc1ccc(C)cc1)N(c1ccc(OCC)cc1)C2=O` (stereo not given) were 4.48%, 0%, 9.32%, -0.465% and 3.57%.
For `CCCn1c(=O)c2ccc(C(=O)NC(C)CC)cc2n2c(=O)n(Cc3ccc(F)cc3)nc12` (stereo not given), the activity change, negative = inhibition was 1.37% in test [1]; 0% in test [2]; 4.79% in test [3]; -0.426% in test [4]; 3.76% in test [5].
Taken in the same sequence, the figures for `CNCCNS(=O)(=O)c1cccc2cnccc12` were -5.93%, 8.22%, 10%, -6.35% and 0.544%.
For `O=C(Cn1nc2nc(Nc3ccc(F)cc3)ccn2c1=O)Nc1ccccc1Cl`, in that order: 3.88%, 0%, 7.24%, 3.37% and 3.73%.
On to `CC(NC(=O)Cn1ccc2cc(S(=O)(=O)N3CCCCC3)ccc21)c1ccccc1` (stereo not given), for which the activity change, negative = inhibition in test [1] was 7.92%; in test [2], 2.1%; in test [3], 4%; in test [4], 5.34%; in test [5] it was 4.55%.
Taken in the same sequence, the figures for `COCC1CN(C(=O)Cn2c(=O)oc3ccccc32)CC12CCNCC2` (stereo not given) were -3.14%, -0.304%, 1.86%, -2.59% and -15.2%.
Taken in the same sequence, the figures for `CCOC(=O)c1cc2n(n1)CC(C)(C(=O)NCCC(C)C)N(c1ccc(C)c(F)c1)C2=O` (stereo not given) were -4.48%, 0.547%, -3.16%, -0.693% and -6.56%.
For `C/C=C1\[C@H](O[C@@H]2O[C@H](CO)[C@@H](O)[C@H](O)[C@H]2O)OC=C(C(=O)O)[C@H]1CC(=O)OCCc1ccc(O)cc1`, in that order: 6.03%, 5.68%, 2.94%, -6.78% and 1.8%.
Regarding `CNC(C)C(=O)NC(C(=O)N1CCCC1C(=O)Nc1cccc2ncccc12)C(C)C` (stereo not given), the activity change, negative = inhibition is 3.68% in test [1]; 5.92% in test [2]; 11.2% in test [3]; -5.83% in test [4]; 4.46% in test [5].
`CCCc1cc(C(=O)N2CCc3c(nc(-c4cccnc4)[nH]c3=O)C2)n[nH]1`: the activity change, negative = inhibition in test [1] was -9.34%; in test [2], -5.28%; in test [3], -2.01%; in test [4] it was -2.44%; in test [5] it was -1.34%.
For `O=C1NC2(CCN(C(=O)Cc3ccccc3)C2)OCc2ccccc21` (stereo not given), in that order: -12.1%, -8.34%, -4%, -13.3% and -9.98%.
Consider `COC(=O)N[C@H](C(=O)N1CC2(CC2)C[C@H]1c1ncc(-c2ccc3c(c2)C(F)(F)c2cc(-c4ccc5nc([C@@H]6[C@H]7CC[C@H](C7)N6C(=O)[C@@H](NC(=O)OC)C(C)C)[nH]c5c4)ccc2-3)[nH]1)C(C)C`, for which the activity change, negative = inhibition in test [2] was 0.176%; in test [4], -28.3%; in test [5], -8.25%.
Turning to `O=C(COc1cccc2c(=O)[nH]ccc12)c1ccccc1`, the activity change, negative = inhibition in test [1] is -4.93%; in test [2], 1.1%; in test [3] it was 0.889%; in test [4], -8.76%; in test [5], -6.62%.
Taken in the same sequence, the figures for `Cc1cc2c(cc3n2CC(C)(C(=O)NC2CCCCCC2)N(Cc2ccc(OC(C)C)cc2)C3=O)o1` (stereo not given) were 2.69%, 0.22%, 5.18%, -3.19% and 1.86%.
For `CCNC(=O)[C@H]1O[C@@H](n2cnc3c(N)nc(NCCc4ccc(CCC(=O)O)cc4)nc32)[C@H](O)[C@@H]1O`, in that order: 2.29%, -0.285%, 5.92%, -10.5% and -1.29%.
